Measurements: patent publication US20190233519A1 (NANJING LEGEND BIOTECH, published 2019)

Key:
PD-1-His protein = biological target: T1, PD-1-His protein (UniProt Q15116 part only, limits assumed); assay: SPR, antibody captured by Fc, PD-1-His as analyte
T1 construct: not shown: His tag

[1] = biological target: T2, human PD-1 expressed on CHO cells (human, UniProt Q15116 25-288); assay: FACS competition, biotin hPD-L1-Fc on CHO cells expressing human PD-1
T2 construct: whole, on cells; Also used here for PD-1 on primary T cells (MLR) and on reporter Jurkat cells in the functional rows; also called CHO cells expressing human PD-1

[2] = biological target: T3, biotin-labeled hCTLA-4/Fc protein (human, UniProt P16410 37-161, biotin label in the FACS competition assays (sites not given)); assay: FACS competition, biotin hCTLA-4-Fc on CHO cells expressing human B7-1
T3 construct: also called CTLA-4 ECD (CTLA-4-Fc); CTLA-4-Fc (GenScript, Z03373-50)

CTLA-4-His protein [3] = biological target: T4, CTLA-4-His protein (Homo sapiens (Human), UniProt P16410 37-161); assay: SPR, antibody captured by Fc, CTLA-4-His as analyte
T4 construct: also called CTLA-4-His fusion protein; not shown: His tag

[4] = biological target: T2, human PD-1 expressed on CHO cells; assay: FACS on CHO cells expressing human PD-1
[5] = biological target: T5, human CTLA-4 expressed on CHO cells (human, UniProt P16410 37-223); assay: FACS on CHO cells expressing human CTLA-4
T5 construct: also called CHO cells expressing human CTLA-4; CTLA-4 expressing CHO cells

CTLA-4-His protein [6] = biological target: T4, CTLA-4-His protein; assay: SPR, CTLA-4-His immobilised, HCAb as analyte at 5-160 nM
T4 sequence (P16410 37-161 limits assumed): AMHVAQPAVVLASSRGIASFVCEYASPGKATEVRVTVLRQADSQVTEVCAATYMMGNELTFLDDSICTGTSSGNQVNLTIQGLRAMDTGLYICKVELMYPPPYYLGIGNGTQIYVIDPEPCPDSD

T2 sequence (Q15116 25-288): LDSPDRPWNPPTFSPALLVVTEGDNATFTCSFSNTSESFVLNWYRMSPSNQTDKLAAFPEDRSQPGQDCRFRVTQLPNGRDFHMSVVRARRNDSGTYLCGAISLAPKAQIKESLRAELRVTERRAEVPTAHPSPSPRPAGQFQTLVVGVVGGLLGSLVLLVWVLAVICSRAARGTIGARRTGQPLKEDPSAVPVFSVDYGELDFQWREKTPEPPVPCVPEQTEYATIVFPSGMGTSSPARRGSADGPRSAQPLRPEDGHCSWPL
Sequence of PD-1-His protein (Q15116 25-167 limits assumed): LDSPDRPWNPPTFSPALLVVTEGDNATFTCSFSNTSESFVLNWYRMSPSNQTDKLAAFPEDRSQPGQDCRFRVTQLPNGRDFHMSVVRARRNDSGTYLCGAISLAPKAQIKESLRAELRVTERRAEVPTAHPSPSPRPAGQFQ

Binder	binding result (CTLA-4-His protein [6])	further results
BCP-34 (Keytruda-scFv-hIgG1 hinge-A34311-IgG1 Fc) (bispecific antibody) EIVLTQSPATLSLSPGERATLSCRASKGVSTSGYSYLHWYQQKPGQAPRLLIYLASYLESGVPARFSGSGSGTDFTLTISSLEPEDFAVYYCQHSRDLPLTFGGGTKVEIKGGGGSGGGGSGGGGSQVQLVQSGVEVKKPGASVKVSCKASGYTFTNYYMYWVRQAPGQGLEWMGGINPSNGGTNFNEKFKNRVTLTTDSSTTTAYMELKSLQFDDTAVYYCARRDYRFDMGFDYWGQGTTVTVSSEPKSCDKTHTCPPCPQVKLEESGGGLVLPGESLRLSCEASGRTITTITMGWFRQAPGKERQFVASHSWTDNNPYYADSVKGRFIISRDNAGNRVYLQMHSLEPEDTAVYYCAATARRSFVGRQWYTEARQYDYWGQGTQVTVSS[gap - human IgG1 Fc]	–	Kd (PD-1-His protein): 9.2 nM; IC50 [1]: 4.8 nM; IC50 [2]: 18.6 nM; Kd (CTLA-4-His protein [3]): 6.3 nM; EC50 [4]: 5.4 nM; EC50 [5]: 24.3 nM
A34311 HCAb (Fc fusion, Heavy chain-only antibody: A34311 VHH fused to human IgG1 Fc; also called HCAb A34311) heavy: QVKLEESGGGLVLPGESLRLSCEASGRTITTITMGWFRQAPGKERQFVASHSWTDNNPYYADSVKGRFIISRDNAGNRVYLQMHSLEPEDTAVYYCAATARRSFVGRQWYTEARQYDYWGQGTQVTVSS[gap - human IgG1 Fc]	–	IC50 [2]: 3.5 nM
AS07189TKDVH11F27 HCAb (Fc fusion, Humanized VHH fused to human IgG1 Fc, dimeric form) heavy: EVQLVESGGGLVQPGGSLRLSCAASGFSPSVNYMGWFRQAPGKGREEVSSIYPTGGTFYTDSVKGRFTISRDNAKNTLYLQMNSLRPEDTAVYYCAAGKWGTDYWGQGTLVTVSS[gap - human IgG1 Fc]	binds	–
AS07189TKDVH11 HCAb (Fc fusion, Humanized VHH fused to human IgG1 Fc, dimeric form) heavy: EVQLVESGGGLVQPGGSLRLSCAASGDSPSVNYMGWFRQAPGKGREEVSSIYPTGGTFYTDSVKGRFTISRDNAKNTLYLQMNSLRPEDTAVYYCAAGKWGTDYWGQGTLVTVSS[gap - human IgG1 Fc]	binds	–
A34311VH11 HCAb (Fc fusion, Humanized VHH fused to human IgG1 Fc, dimeric form) heavy: EVQLVESGGGVVQPGRSLRLSCAASGRTITTITMGWFRQAPGKGREFVASHSWTDNNPYYADSVKGRFTISRDNAKNTLYLQMNSLRPEDTAVYYCAATARRSFVGRQWYTEARQYDYWGQGTLVTVSS[gap - human IgG1 Fc]	binds	–
AS07014VH11G54 HCAb (Fc fusion, Humanized VHH fused to human IgG1 Fc, dimeric form) heavy: EVQLVESGGGLVQPGGSLRLSCAASGYTYSRHCLGWFRQAPGKGREAVSTIDSGGSTSYADSVKGRFTISRDNAKNTLYLQMNSLRPEDTAVYYCAIGPNPRYCSGAPNTRGAEHYFGYWGQGTLVTVSS[gap - human IgG1 Fc]	binds	–

Now from value to binder, other results behind:

binding result (CTLA-4-His protein [6])	Binder	further results
binds	AS07014VH11SGQ HCAb (Fc fusion, Humanized VHH fused to human IgG1 Fc, dimeric form) heavy: EVQLVESGGGLVQPGGSLRLSCAASGYTYSRHCLGWFRQAPGKGREAVSTISSGGSTSYADSVKGRFTISRDNAKNTLYLQMNSLRPEDTAVYYCAIGPNPRYCSGAPQTRGAEHYFGYWGQGTLVTVSS[gap - human IgG1 Fc]	–
binds	AS07014VH11SGA HCAb (Fc fusion, Humanized VHH fused to human IgG1 Fc, dimeric form) heavy: EVQLVESGGGLVQPGGSLRLSCAASGYTYSRHCLGWFRQAPGKGREAVSTISSGGSTSYADSVKGRFTISRDNAKNTLYLQMNSLRPEDTAVYYCAIGPNPRYCSGAPATRGAEHYFGYWGQGTLVTVSS[gap - human IgG1 Fc]	–
binds	AS07014VH11 HCAb (Fc fusion, Humanized VHH fused to human IgG1 Fc, dimeric form) heavy: EVQLVESGGGLVQPGGSLRLSCAASGYTYSRHCLGWFRQAPGKGREAVSTIDSDGSTSYADSVKGRFTISRDNAKNTLYLQMNSLRPEDTAVYYCAIGPNPRYCSGAPNTRGAEHYFGYWGQGTLVTVSS[gap - human IgG1 Fc]	–
binds	AS07014VH11SGS HCAb (Fc fusion, Humanized VHH fused to human IgG1 Fc, dimeric form) heavy: EVQLVESGGGLVQPGGSLRLSCAASGYTYSRHCLGWFRQAPGKGREAVSTISSGGSTSYADSVKGRFTISRDNAKNTLYLQMNSLRPEDTAVYYCAIGPNPRYCSGAPSTRGAEHYFGYWGQGTLVTVSS[gap - human IgG1 Fc]	–
